Data taken from PubChem BioAssay AID624417 (National Center for Advancing Translational Sciences (NCATS), 2012).
Out of some 410,000 compounds screened, about 6,400 (1.6%) were called active. This list was built around the results that the source calls inconclusive (neither active nor inactive); the mix of calls is not that of the screen. The call rests on the fitted dose curve; in most records, active means well fitted inhibition curve with a large enough effect; inconclusive means small, poorly fitted or top-dose-only effect; inactive means no such curve, though single readings can be large or run the other way. Potencies of inconclusive entries are left out as doubtful fits.
Further: nearly all actives have a fitted effect of over 55% in size.
On the % scale 0 is the no-effect control and ±100 the full control effect; potency means the concentration at half of the fitted maximal effect; tags describe the fitted curve by direction and shape.

Each compound was assayed against Glucagon-like peptide 1 receptor (Homo sapiens) (UniProt P43220) (assay: qHTS of GLP-1 Receptor Inverse Agonists (Inhibition Mode)). Details: HEK293 GLP-1R CRE-luciferase, luminescence, 24 h, GLP-1R form is constitutively active; activity change, negative = inhibition: at 38.3 µM (top of the series) unless noted.
UniProt P43220, sequence (P43220 whole entry, looked up): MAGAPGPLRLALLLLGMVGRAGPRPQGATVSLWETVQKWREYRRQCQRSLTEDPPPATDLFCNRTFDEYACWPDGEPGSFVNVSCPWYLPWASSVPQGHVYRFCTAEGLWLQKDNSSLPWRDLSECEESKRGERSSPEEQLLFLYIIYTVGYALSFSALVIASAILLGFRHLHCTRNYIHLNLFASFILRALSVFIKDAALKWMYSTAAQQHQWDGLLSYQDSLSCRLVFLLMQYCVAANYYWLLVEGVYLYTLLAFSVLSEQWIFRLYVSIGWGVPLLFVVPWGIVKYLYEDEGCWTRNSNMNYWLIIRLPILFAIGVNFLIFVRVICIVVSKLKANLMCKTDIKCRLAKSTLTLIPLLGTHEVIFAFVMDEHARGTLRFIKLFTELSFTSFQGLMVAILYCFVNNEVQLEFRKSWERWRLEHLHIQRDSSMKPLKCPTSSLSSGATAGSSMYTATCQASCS
In short: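 Stable HEK293 clone (constitutively active GLP-1R + cAMP-response luciferase); 200 cells/uL plated, 12 h pre-culture, compound 24 hr, 37 deg C/5% CO2; detection reagent 12 min RT; luminescence.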
For `COc1ccc(-c2noc(CCC(=O)Nc3cc(OC)ccc3OC)n2)cc1`, the Potency was inconclusive [inhibitor, full curve]. For `CC1=C(CC(=O)c2ccccc2)C(=O)c2ccccc2C1=O`, the Potency was inconclusive [inhibitor, single point]. `CCc1ccc(NC(=O)Cn2nnc(-c3ccc(C)cc3-n3cnnn3)n2)cc1` was tested, and the Potency was inconclusive [inhibitor, single point]. With `Cc1ccc(NC(=S)NC2CCN(Cc3ccccc3)CC2)c(C)c1` the Potency was inconclusive [inhibitor, partial curve, poor fit]. In the case of `COc1ccccc1NC(=O)CSc1oc(-c2ccccc2)nc1S(=O)(=O)c1ccccc1`, the Potency is reported as inconclusive [inhibitor, partial curve, poor fit]. For `COc1ccc2c(c1)c1c(c(=O)n(-c3cccc(C)c3)c(=O)n1CC(=O)NCC1CCCO1)n2C` (stereo not drawn), the “activity change, negative = inhibition” value was inactive: 4.87%. In the case of `COc1cc(-c2oc3ccc(C)cc3c(=O)c2O)cc(OC)c1OC`, the Potency is reported as inconclusive [inhibitor, full curve, poor fit]. `CC(C)n1c2ccccc2c2nc3ccccc3nc21` was tested, and the Potency was inconclusive [inhibitor, partial curve, poor fit]. For `CC1(C(=O)NCc2cccc3ccccc23)CCN1CCc1ccccc1` (stereo not drawn), the Potency was inconclusive [inhibitor, single point]. With `CN(Cc1ccccc1)C(=O)c1cc(-c2cccc(Cl)c2)on1` the “activity change, negative = inhibition” value was inactive: -16.9%. In the case of `CS(=O)(=O)N(CCc1ccccc1)CC(=O)N1CCN(Cc2ccc3c(c2)OCO3)CC1`, the “activity change, negative = inhibition” value is reported as inactive: 0%. `N#C/C(=C(/O)CN1CCOCC1)c1nc2ccccc2s1` was tested, and the “activity change, negative = inhibition” value was inactive: -17.8%. For `Nc1c(C(=O)Nc2ccccc2)c2nc3ccccc3nc2n1-c1ccc(O)cc1`, the Potency was inconclusive [inhibitor, partial curve, poor fit]. `Nc1cc2c(cc1C(=O)c1cccc(Br)c1)OCCO2` was tested, and the Potency was inconclusive [inhibitor, single point]. For `CCC1(c2ccc(F)cc2)NC(=O)N(CC(=O)c2cc(C)n(C3CC3)c2C)C1=O` (stereo not drawn), the Potency was inconclusive [inhibitor, single point]. `Cc1ccc2c(c1)-c1cc(C)nn1C(c1ccc3c(c1)OCO3)N2` (stereo not drawn) was tested, and the Potency was inconclusive [inhibitor, single point]. `COc1ccc(C(=O)NC(=S)NCc2ccco2)cc1OC` was tested, and the “activity change, negative = inhibition” value was inactive: 3.32%. In the case of `Cc1ccccc1NC(=S)Nc1ccccn1`, the Potency is reported as inconclusive [inhibitor, partial curve, poor fit]. With `Fc1ccc(-c2nc3c4ccccc4ccn3c2Cc2cccc(Cl)c2)cc1` the Potency was inconclusive [inhibitor, partial curve]. For `CC(/C=N/NC(=O)CSc1nnc(SCc2ccccc2)s1)=C\c1ccco1`, the Potency was inconclusive [inhibitor, single point]. In the case of `O=C(CN1C(=O)NC2(CCc3ccccc32)C1=O)c1ccc(Br)cc1` (stereo not drawn), the Potency is reported as inconclusive [inhibitor, partial curve, poor fit]. With `Cc1cccc2sc(NNC(=O)c3ccc(S(=O)(=O)N4CCc5ccccc5C4)cc3)nc12` the Potency was inconclusive [inhibitor, single point]. In the case of `COc1ccc(-c2cc(C(=O)c3c(N)n(C)c(=O)n(C)c3=O)c3ccccc3n2)cc1`, the “activity change, negative = inhibition” value is reported as inactive: -3.28%. `CCCN1CCN(CCNC(=O)Nc2ccccc2OCC)CC1` was tested, and the “activity change, negative = inhibition” value was inactive: 0.478%. For `O=C(c1ccc(Cl)cc1)N1N=C(c2ccccn2)CC1(O)C(F)(F)F` (stereo not drawn), the Potency was inconclusive [inhibitor, partial curve, poor fit]. In the case of `COc1ccc2nc(Nc3nc4ccc(NC(C)=O)cc4s3)sc2c1`, the Potency is reported as inconclusive [inhibitor, single point]. For `Cc1ccn2c(NCc3ccccc3)c(-c3cccs3)nc2c1`, the Potency was inconclusive [inhibitor, single point]. `Cc1cc2c(n1-c1ccc(C(=O)NCCc3ccccc3)cc1)CCC(C)C2` (stereo not drawn) was tested, and the “activity change, negative = inhibition” value was inactive: 17.5%. `CCc1ccc(CN(C)C(=O)CCc2nnc(-c3ccc(-c4ccccc4)cc3)o2)nc1` was tested, and the Potency was inconclusive [inhibitor, single point]. With `Cc1ncc(CO)c(CNc2ccc(-c3nc4ccccc4[nH]3)cc2)c1O` the Potency was inconclusive [inhibitor, single point]. With `Cc1nc(-c2ccc(S(=O)(=O)N3CCN(Cc4ccccc4)CC3)s2)cs1` the Potency was inconclusive [inhibitor, partial curve, poor fit]. For `O=C(COc1ccc(Cl)cc1)N(Cc1ccc(F)cc1)C1CCS(=O)(=O)C1` (stereo not drawn), the Potency was inconclusive [inhibitor, single point]. In the case of `CCCn1cc(CN2CCC(C(=O)Nc3cccc(-c4cscn4)c3)CC2)c(C)n1`, the Potency is reported as inconclusive [inhibitor, partial curve]. In the case of `CCCCn1c(N2CCC(Cc3ccccc3)CC2)nc2c1c(=O)[nH]c(=O)n2C`, the Potency is reported as inconclusive [inhibitor, partial curve, poor fit]. With `Cc1ccccc1N=C1SCCN1C(=O)CN1C(=O)NC2(CCCC2)C1=O` the Potency was inconclusive [inhibitor, single point]. For `O=C(CSc1nnnn1C1CCCCC1)Nc1nc2c(s1)CCCC2`, the Potency was inconclusive [inhibitor, single point]. For `COC(=O)c1ccc(C(=O)N(Cc2ccccc2)c2ccccc2)cc1`, the Potency was inconclusive [inhibitor, single point]. With `O=C(Cc1ccc(Cl)cc1Cl)Nc1ccncc1Cl` the Potency was inconclusive [inhibitor, partial curve, poor fit]. `CC(C)(C)C(=O)Nc1ccc2nc(SCC(=O)N3CCc4ccccc43)sc2c1` was tested, and the Potency was inconclusive [inhibitor, full curve]. For `COc1cc(OC)cc(C(=O)NC(C(=O)Nc2ccc3c(c2)OCO3)C(C)C)c1` (stereo not drawn), the Potency was inconclusive [inhibitor, single point]. `COc1cc(/C=N/NC(=O)NC23CC4CC(CC(C4)C2)C3)ccc1OCC(N)=O` was tested, and the Potency was inconclusive [inhibitor, single point]. `Cc1nc(N2CCc3ccccc3C2)[nH]c(=O)c1Cc1ccccc1` was tested, and the Potency was inconclusive [inhibitor, single point]. `CCOc1ccc(OCc2ccc(C(=O)N/N=C(\C)c3ccccn3)cc2)cc1` was tested, and the Potency was inconclusive [inhibitor, partial curve, poor fit]. For `CCCCNc1c(-c2ccc(SC3CCCCC3)c(OC)c2)nc2ccc(Cl)cn12`, the Potency was inconclusive [inhibitor, partial curve, poor fit]. For `CC(C(=O)NC(=O)NCc1ccccc1)N1C(=O)c2ccccc2C1=O` (stereo not drawn), the “activity change, negative = inhibition” value was inactive: -11%. For `Cc1cc(C(=O)N2CC(C)CC(C)C2)n(-c2ccccc2)n1` (stereo not drawn), the Potency was inconclusive [inhibitor, partial curve, poor fit]. With `Cc1ccc(NC(=O)/C=N/OCC(=O)NCc2ccccc2Cl)cc1` the Potency was inconclusive [inhibitor, partial curve, poor fit]. With `COc1ccc2cc(CNc3ccc(C)cc3)c(=O)n(CC(=O)Nc3cccc(C(F)(F)F)c3)c2c1` the Potency was inconclusive [inhibitor, partial curve]. In the case of `NC(=O)c1ccc(Oc2ccc(Cl)cc2)c([N+](=O)[O-])c1`, the Potency is reported as inconclusive [inhibitor, partial curve, poor fit]. In the case of `COc1ccc(CN2CCc3ccc(NC(=O)CCc4ccccc4OC)cc3C2)c(O)c1`, the Potency is reported as inconclusive [inhibitor, single point]. For `CCCN(CCC)C(=O)Cc1ccc(F)cc1`, the Potency was inconclusive [inhibitor, partial curve, poor fit]. In the case of `CC1(C)CC(NC(=O)C2CCN(S(=O)(=O)c3ccc(Cl)c(C(F)(F)F)c3)CC2)CC(C)(C)N1`, the Potency is reported as inconclusive [inhibitor, partial curve, poor fit]. For `O=c1c2cccnc2n(Cc2cccc(F)c2)c(=O)n1Cc1ccccc1Cl`, the Potency was inconclusive [inhibitor, single point]. For `Nc1nonc1C(=O)NCCNCc1ccccc1`, the “activity change, negative = inhibition” value was inactive: -11.9%. `CCCCCN(C(=O)CCC(=O)OCc1ccccc1C(F)(F)F)c1c(N)n(CCCC)c(=O)[nH]c1=O` was tested, and the Potency was inconclusive [inhibitor, full curve]. With `COc1cc[n+]([O-])cc1[N+](=O)[O-]` the Potency was inconclusive [inhibitor, single point]. `O=C(CCl)NC(Cc1ccccc1)c1ccccc1` (stereo not drawn) was tested, and the Potency was inconclusive [inhibitor, partial curve, poor fit]. `O=C(NCCCCc1ccccc1)C1CCCC1` was tested, and the Potency was inconclusive [inhibitor, single point]. For `COc1ccc2c(c1)CCC(C)N2C(=O)C(=O)c1c[nH]c2ccccc12` (stereo not drawn), the Potency was inconclusive [inhibitor, partial curve, poor fit]. In the case of `CS/C(N)=N/N=C/c1c(O)ccc2ccccc12`, the Potency is reported as inconclusive [inhibitor, single point]. For `S=c1[nH]nc(COc2ccccc2)n1/N=C/c1cccnc1`, the “activity change, negative = inhibition” value was inactive: -1.9%. In the case of `CCOC(=O)CCn1c(CC(=O)OCC)nc2ccccc21`, the Potency is reported as inconclusive [inhibitor, partial curve, poor fit]. For `O=C1N/C(=N\S(=O)(=O)Cc2ccccc2)S/C1=C/c1cccc([N+](=O)[O-])c1`, the Potency was inconclusive [inhibitor, single point].
